Some of the results follow.

The subject of this test is T1, C. trachomatis L2/434/Bu expressing GFP (CTL2-GFP).
T1 construct: L2/434/Bu GFP intracellular growth in HeLa cells
The arrangement: species or system HeLa; C. trachomatis total inclusion area by high-content imaging, normalised to DMSO. The following applies: total inclusion area; 28.5 h, 10 µM; inhibitor. The gist of the method: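 High-content imaging followed the bulk GFP/resorufin measurement: fixed, Hoechst-stained cells were scored for GFP inclusions and host nuclei per well. Total inclusion area and count served as growth proxies, nuclei number as the viability proxy. MIC calculation matched the bulk assay.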
On to `Cc1ccc(CN2C[C@@H]3CC[C@@](O)(c4ncccc4C)[C@@H]3C2)o1` [CBK285361], for which the “% of control remaining” value turned out to be 104.061. As for `O=C(NCCO)c1cccc(-c2cnc3[nH]c(=O)n(Cc4ccccn4)c3n2)c1` [CBK065034], the “% of control remaining” value was determined as 84.0168. The same measure for `CN(C)CCCOC(=O)c1cccnc1Cl` [CBK027436]: 107.48; for `Cc1nnc(SCC(=O)n2c3c(c4ccccc42)CCCC3)n1C` [CBK268351]: 121.512.

Consider `Cc1nc2ncnc(N3CCc4ccccc43)c2[nH]1` [CBK291228], for which the “% of control remaining” value is 85.4165. For the compound `Cc1ccc(CSCC(=O)NCCN2CCOCC2)cc1` [CBK269327], the “% of control remaining” value was 102.743. Turning to `CN(C)c1ccc(-n2ncc(-c3ccccc3C(F)(F)F)n2)cc1` [CBK112716], the “% of control remaining” value amounted to 101.996. For `CN1CCCC(NC(=O)c2cc(-c3cccs3)no2)C1` (stereo not shown) [CBK282564], the “% of control remaining” value came to 89.4456.

For the compound `Cc1ccc(NC2C=CS(=O)(=O)C2)cc1` (stereo not shown) [CBK057487], the “% of control remaining” value is on record as 80.9245. In the case of `O=C(NCc1cccs1)C1(Cc2cccc(-c3ccc(F)c(F)c3)c2)CCOCC1` [CBK285569] it was 95.0137; in that of `O=C(COc1ccccc1[N+](=O)[O-])Nc1cc(-c2nc3cc(Cl)ccc3o2)ccc1Cl` [CBK268639], 92.5837; in that of `Cc1ccc(S(=O)(=O)NC(C(=O)O)c2ccccc2)cc1` (stereo not shown) [CBK286985], 59.7523. The same measure for `Fc1ccccc1CN1CCN(c2nccnc2OCCN2CCOCC2)CC1` [CBK082886T]: 83.418; for `CCNC(=O)CN(CC)S(=O)(=O)c1cccc(C#N)c1` [CBK306481]: 28.9204; for `Cc1ccc(CN(CCCn2ccnc2)Cc2[nH]cnc2C)s1` [CBK283138]: 99.8077.

Turning to `CC(C)c1ccc(-c2cncc(NCCCO)n2)cc1` [CBK037937], the “% of control remaining” value is reported as 113.131.

`NC(=O)c1ccccc1NC(=O)CN(c1cccc(Br)c1)S(=O)(=O)c1ccccc1` [CBK265263]: the “% of control remaining” value is 95.1787. In the case of `Cc1cc(OCC(=O)O)c(C)c2c1CC[C@@H]([C@H](C)C(=O)N1CCC(O)CC1)C2` [CBK289433], the “% of control remaining” value is listed as 109.052. Consider `N#Cc1c(NC(=O)C(=O)NCc2ccccn2)sc2c1CCCC2` [CBK269360], for which the “% of control remaining” value worked out at 95.2615.

Turning to `COc1cc(OC)c(OC)cc1CN1CCN(Cc2ccco2)CC1` [CBK074509G], the “% of control remaining” value was found to be 100.339.

With `CC(C)(C)C(=O)Nc1cccc(OC(F)(F)C(F)Cl)c1` (stereo not shown) [CBK018091], the “% of control remaining” value was 87.2455. For the compound `COc1ccccc1-c1cccc(NCC(c2cccnc2)N(C)C)n1` (stereo not shown) [CBK037770], the “% of control remaining” value is on record as 144.497. In the case of `Cn1ncc2c1CCCN(C(=O)c1cccc(C(F)(F)F)c1)C2` [CBK282252], the “% of control remaining” value is reported as 98.5118. The same measure for `CN(C)S(=O)(=O)Nc1ccc2c(ccn2Cc2ccccc2)c1` [CBK155765]: 73.044. As for `Cc1cccn2cc(CSc3nnc4[nH]c5ccccc5n34)nc12` [CBK296996], the “% of control remaining” value is 100.9. As for `CCOc1ccc(S(=O)(=O)N2CCC(C(=O)NCCO)CC2)cc1` [CBK269817], the “% of control remaining” value was found to be 103.596. Consider `CCc1nc2c(OCC3CCCCO3)cccn2c1N(C)C(=O)c1ccc2c(c1)OCO2` (stereo not shown) [CBK147860], for which the “% of control remaining” value is listed as 129.956. In the case of `CC(C)(C)OC(=O)N[C@@H]1C(=O)OC(C(O)CO)[C@@H]1O` (stereo partly shown) [CBK008178], the “% of control remaining” value turned out to be 152.251. As for `Cc1ccc(C(=O)O)cc1NC(=S)NC(=O)c1ccc(-c2ccccc2)cc1` [CBK264997], the “% of control remaining” value is recorded as 110.11.

Consider `Cc1cc(C)n(-c2ccnc(NCc3cccnc3)n2)n1` [CBK288614], for which the “% of control remaining” value is 77.5708. As to `O=C(CC1CCCCC1)N1CCCC1c1n[nH]cc1-c1ccncc1` (stereo not shown) [CBK283429], the “% of control remaining” value was 81.9155. In the case of `CCOCCN1C[C@@H](C(F)(F)F)[C@H](C(=O)O)C1` [CBK287033], the “% of control remaining” value was 121.49.

Consider `O=C1OC(c2ccco2)=N/C1=C/c1ccccc1OC(=O)c1ccco1` [CBK263980], for which the “% of control remaining” value is 99.708. Regarding `COCCNC(=O)c1ccc(-c2cc(C(C)C)ccc2OC)nc1NCC1CC1` [CBK106256], the “% of control remaining” value stood at 90.0827. Regarding `CCN(C(=O)c1cc(C)nc2ccccc12)C1CCN(C)CC1` [CBK281920], the “% of control remaining” value was 90.8078.

For the compound `COc1ccc(Nc2ccc(-c3cnc(OC)nc3OC)cn2)c(C)c1` [CBK036827], the “% of control remaining” value was determined as 110.774. As for `CC(C)Cn1ncc2cc(C(=O)Nc3cccnc3N(C)C)cnc21` [CBK304891], the “% of control remaining” value amounted to 40.2966. `O=C(O)c1cc(C(=O)O)cc(N2C(=O)c3ccc(-c4ccc5c(c4)C(=O)N(c4cc(C(=O)O)cc(C(=O)O)c4)C5=O)cc3C2=O)c1` [CBK261331]: the “% of control remaining” value worked out at 116.942. As for `NS(=O)(=O)c1ccc(NC(=S)N2CCN(CCO)CC2)cc1` [CBK265891], the “% of control remaining” value was 103.226.

In the case of `Fc1ccc(SCCc2ccccn2)cc1` [CBK026491G], the “% of control remaining” value came out at 44.7393. Take `O=c1[nH]cc(S(=O)(=O)Nc2ccccc2)c(=O)[nH]1` [CBK287703]: the “% of control remaining” value is listed as 84.8425. In the case of `CC(=O)NC(c1nccs1)C1CCCN(C(=O)C2CCCCC2)C1` (stereo not shown) [CBK282170] it was 59.9596; in that of `O=C(Cn1cccc(C(=O)Nc2ccc(F)cc2)c1=O)Nc1nc2c(s1)CCCCC2` [CBK286055], 105.946. `NC(=O)c1ccc(NC(=O)COc2ccccc2Cl)cc1` [CBK262961]: the “% of control remaining” value amounted to 86.117. In the case of `COCC(=O)N1CCC2(C/C=C/C[C@H]3COCC[C@@H]3NC(=O)CNC2=O)CC1` [CBK292158], the “% of control remaining” value worked out at 77.9766.

As for `COc1cc2[nH]c(=O)c(C(=O)NCCc3ccc(Cl)cc3)c(O)c2cc1OC` [CBK159986], the “% of control remaining” value turned out to be 49.5831. Take `CN1[C@@H](CCC(=O)N2CCc3ccccc32)CNC(=O)[C@@H]2[C@H]1CCN2Cc1ccc(O)cc1` [CBK289021]: the “% of control remaining” value is on record as 125.84. For `O=C1CNC(=O)C2(C/C=C/C[C@H]3COCC[C@@H]3N1)CCN(CC(=O)N1CCCCC1)CC2` [CBK292137], the “% of control remaining” value was determined as 73.1496. The same measure for `CSc1ccc(S(=O)(=O)NCCSCc2ccc(C)cc2)cc1` [CBK268510]: 74.9471.

On to `CCN1CCN(Cc2c(C)nc3ccc(C)cc3c2O)CC1` [CBK263699], for which the “% of control remaining” value is 106.762. For `Cc1nc2ccc(C(=O)NC3CCCOC3)cc2s1` (stereo not shown) [CBK282509], the “% of control remaining” value was 103.52. Regarding `CN1CCN(C(=O)CC[C@@H]2CNC(=O)[C@@H]3C[C@H](NC(=O)c4cccs4)CN23)CC1` [CBK289013], the “% of control remaining” value was 93.9472. `O=C(CSc1nc[nH]n1)Nc1ccccc1[N+](=O)[O-]` [CBK265005]: the “% of control remaining” value worked out at 101.789. For `COc1cc(NS(=O)(=O)c2ccc(NC(=O)c3cccc4ccccc34)cc2)nc(OC)n1` [CBK262465], the “% of control remaining” value came to 100.516. The same measure for `COC(=O)c1cc(-c2cccnc2)[nH]n1` [CBK268945]: 96.6371; for `COc1ccc(Nc2ccc(-c3cccc(N(C)C)c3)cn2)cn1` [CBK037588]: 104.505. In the case of `C=CCOc1ccc(-c2nnn(CC(=O)O)n2)cc1` [CBK269772] it was 109.969; in that of `CCOC(=O)C1(Cc2cc(-c3ccccc3)no2)CCNCC1` [CBK284924], 85.2462; in that of `O=C(O)CCCCCNc1ccc(C(F)(F)F)cc1[N+](=O)[O-]` [CBK286707], 111.713.

Consider `Cc1nc2c(OCCOc3ccc(F)cc3)cccn2c1N(C)C(=O)CCC1CCCC1` [CBK147198], for which the “% of control remaining” value was 132.433.

For the compound `c1ccc(-c2ccc(COc3cncc(N4CCNCC4)n3)s2)nc1` [CBK008960G], the “% of control remaining” value was 117.613. The same measure for `CC1CCCCC12NC(=O)N(Cc1nnc(-c3cccs3)o1)C2=O` (stereo not shown) [CBK306205]: 16.1813; for `CC(NC(=O)N1CCC1)c1cccc(S(N)(=O)=O)c1` (stereo not shown) [CBK306357]: 68.4762; for `O=C(Nc1cccc([N+](=O)[O-])c1)c1ccc2nc(-c3ccccn3)c(-c3ccccn3)nc2c1` [CBK265137]: 112.567.

With `CCOC(=O)c1cnc(C(C)(C)C)nc1O` [CBK018470], the “% of control remaining” value amounted to 75.9411. For `CN(CC(=O)N1CCN(Cc2ccc3c(c2)OCO3)CC1)S(=O)(=O)c1ccccc1` [CBK265791], the “% of control remaining” value is 94.5587. For `O=C(Nc1scc(-c2ccc(-c3ccccc3)cc2)c1C(=O)O)c1ccco1` [CBK266156], the “% of control remaining” value was determined as 85.828. For `CCN(CC)C(=O)CN(CCc1ccc(OC)c(OC)c1)C(=O)NCCc1c[nH]c2ccccc12` [CBK158741], the “% of control remaining” value worked out at 98.354. `CCOc1ccc(C(=O)N2CCN(S(=O)(=O)c3ccc(C)cc3C)CC2)cn1` [CBK298313]: the “% of control remaining” value worked out at 36.4697. In the case of `Cc1oc(C2CC2)cc1C(=O)N1CCC(c2ccncc2)CC1` [CBK283514] it was 78.0591; in that of `CN(CC1CCCN(C(=O)Nc2cccc(Cl)c2)C1)C(=O)OC(C)(C)C` (stereo not shown) [CBK305597], 20.6232; in that of `CC(NC(=O)C1CCN(CCOc2ccccc2)CC1)c1ccccc1` (stereo not shown) [CBK148610], 96.4332. In the case of `O=C(NC1CC1)[C@H]1C=CCN1C(=O)c1cccs1` [CBK284324] it was 86.131; in that of `CCn1c(CN2CCOCC2)nnc1SCC(=O)Nc1cc(C)cc(C)c1` [CBK270258], 112.592.

For `Cc1csc(-c2cn3ccnc3c(N3CCN(c4ccccn4)CC3)n2)c1` [CBK066530], the “% of control remaining” value was 65.5957. In the case of `COCCNc1nc(-c2ccccc2OC)ccc1C(=O)N1CCN(C)CC1` [CBK105950], the “% of control remaining” value is on record as 107.864. Take `O=S(=O)(Nc1cc(O[C@@H]2CCNC2)c2occc2c1)c1cc(F)c(Br)cc1F` [CBK073943C]: the “% of control remaining” value was 80.0683. Regarding `Nc1nc(SCc2cccc([N+](=O)[O-])c2)n[nH]1` [CBK268688], the “% of control remaining” value worked out at 66.2386.

For `O=C(CN1CCN(c2ccccn2)CC1)N1c2ccccc2Sc2ccc(C(F)(F)F)cc21` [CBK268835G], the “% of control remaining” value is recorded as 105.433.

The record behind these values is PMC12040169 (PLOS Biology, 2025).
